# The full ranking holds about 33,000 sequences; the median of “E-score (-0.5 to 0.5)” is about -0.04, and the highest 2% start at about 0.36. The list shows a part of the results.
# Biological target: T1, Hmlalpha2 (UniProt P0CY09)
# T1 sequence: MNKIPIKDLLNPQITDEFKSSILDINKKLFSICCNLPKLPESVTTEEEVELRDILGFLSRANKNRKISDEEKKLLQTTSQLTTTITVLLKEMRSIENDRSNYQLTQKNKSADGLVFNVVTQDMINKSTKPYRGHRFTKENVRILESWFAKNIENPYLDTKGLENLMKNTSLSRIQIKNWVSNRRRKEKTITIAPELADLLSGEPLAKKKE
# Assay: PBM E-score (8-mer binding enrichment) (E-score (-0.5 to 0.5)); higher = stronger / more preferred TF binding; most listed sequences are background and not binding sites
# Conditions: protein concentration: 200 nM; construct: GST-full length
# Experimental: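 Universal 'all 10-mer' protein binding microarrays (Agilent AMADID 015681) probed with GST-tagged S. cerevisiae TFs (full-length or DBD) made by in vitro transcription/translation (PURExpress), about 100-200 nM. Bound TF was detected with fluorescent anti-GST. Each ungapped 8-mer (which stands for itself and its reverse complement) is scored by the PBM enrichment score (E-score), a modified Wilcoxon-Mann-Whitney statistic from -0.5 to +0.5, computed with the Universal PBM Analysis Suite. Scale: above 0.35 generally sequence-specific binding.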
row,Sequence,PBM E-score
1,AAGAGCTA,0.0655
2,CTTGGCGA,-0.179
3,CAAGGATG,0.0173
4,AGACCAAC,-0.0666
5,CCAACCTC,-0.128
6,GGCTCAAA,-0.206
7,ACTCGCCC,-0.231
8,AAAAATAT,0.125
9,GCGATCAC,-0.0522
10,CGTGAACG,-0.104
11,CCATTCCC,-0.33
12,ACGCTATG,0.0929
13,CTAGGATA,-0.0196
14,AAAACGTA,0.27
15,CGTTCACC,-0.108
16,ATTGATTG,0.093
17,GCTTTAAC,0.236
18,ATAAATTG,0.228
19,AAAACATA,0.39
20,AGTATCTC,-0.0491
21,AATACGTG,0.383
22,GACGGATC,-0.0606
23,GACTTTGC,-0.165
24,CCCGCGCG,-0.029
25,GAGAGAAA,-0.0112

row,Sequence,PBM E-score
1,GCCAGCTA,0.0125
2,GGCCGGAC,-0.244
3,CGGGTGAA,0.0356
4,ATCCAGGG,-0.156
5,CTGCCTAC,0.0431
6,CGTCGCCA,-0.158
7,AGTCCGGG,-0.136
8,GCTATTCA,0.0214
9,GGACCCAA,-0.35
10,TAACCGTA,-0.0541
11,AGCACCTG,-0.155
12,GCTATACC,-0.0501
13,CGCTCACC,-0.249
14,AATGCCAA,-0.0654
15,ACCTGCCC,-0.191
16,AAACAAGC,0.217
17,AACGGTCC,-0.257
18,GTTACGGA,0.0213
19,ACACTCAA,0.163
20,TACTCGCA,0.0348
21,AAGCTACC,0.0752
22,GGCCCGAC,-0.353
23,AACTCTTA,0.21
24,ATGTATTA,0.428
25,ATCGAGGA,-0.0222

row,Sequence,PBM E-score
1,CGCACCGC,-0.177
2,GACATCGA,-0.0282
3,ATTTGTTC,0.235
4,ACTCTCTG,-0.0846
5,CGCACGCC,-0.0875
6,GGTCGTAA,0.159
7,AAGGTGCG,-0.0969
8,GCTGTACC,-0.204
9,CCGGGACA,-0.151
10,AGGATTAG,-0.0382
11,GAGACAAC,-0.00556
12,AAAGCAGT,-0.0605
13,AGGTTAAT,0.182
14,ACTCAGAA,-0.0459
15,CAGACCTG,-0.258
16,AACGAGGG,-0.0141
17,CTTATCTC,-0.178
18,GAGTGTCC,-0.156
19,ACATTCAA,-0.0317
20,AGGCATAC,0.0104
21,AATAACCT,0.104
22,AATGGCCC,-0.159
23,ACGTCACG,0.102
24,CGGAATGC,-0.258
25,CCATCATA,-0.288

row,Sequence,PBM E-score
1,GAGGTGAC,-0.131
2,AGCTTACC,-0.218
3,GCTGAAAA,0.136
4,AACACCAC,0.127
5,AGTAGTCA,-0.00856
6,CGGATCCA,-0.216
7,GAAGGCTA,-0.15
8,CTATGAAC,0.131
9,CTGAGAAA,0.00705
10,CTCTTTTC,-0.175
11,AACACGAA,0.386
12,GACGTGTA,0.41
13,AAGATGCG,-0.191
14,CTCCCGGA,-0.296
15,AGGTTTAC,0.258
16,AGAGGACT,-0.34
17,GGGTATCA,-0.118
18,ATCCGATA,-0.0739
19,AAGTACAA,0.199
20,CTCCCCTC,-0.202
21,CACGACAA,0.197
22,TCGATCCA,0.0594
23,ATGCGCGA,-0.122
24,ATCACAAG,0.137
25,ACTGGAGA,-0.264

row,Sequence,PBM E-score
1,ATGCTTGA,0.0548
2,ATCAGCAA,-0.23
3,AAAGACCC,0.0299
4,CAAAGTTG,0.0739
5,AAGAACAT,0.309
6,CACATCGA,0.0215
7,ATATTCGC,0.0866
8,AAGGGGAT,-0.102
9,GTCCGAGA,0.0129
10,TCCCCGCA,-0.18
11,CGGCTAGC,-0.207
12,GGCCAAAC,-0.191
13,CATTGGCA,-0.0452
14,AGTCTTGG,-0.169
15,AACTCACT,0.0592
16,CAGATAGG,-0.315
17,AGCGATAC,-0.0227
18,TCATGCAA,0.107
19,CTGAATAC,0.204
20,AAATCTCC,-0.309
21,CAGAAAAG,-0.076
22,AAGTCGAT,-0.189
23,AATCCAGC,-0.184
24,CTGGAGAA,-0.295
25,CAATTCGG,-0.0581

row,Sequence,PBM E-score
1,ACTCATCT,0.0274
2,GATACCCC,-0.251
3,AGCCCCAA,-0.28
4,CCTATGTC,0.0957
5,CCACACTA,0.0316
6,GAAATCGC,-0.165
7,ACGCGCAG,0.074
8,AACTGTTC,-0.125
9,CCCCCTAG,-0.418
10,GGCAGGCA,-0.26
11,GTGGACTA,0.0385
12,CCTCAAGC,-0.233
13,AAGCGGTG,-0.0759
14,ACGCGCCT,0.21
15,GTGCGGGA,-0.122
16,CAAATAAA,0.0807
17,CCCATGAC,-0.031
18,AAGGTATT,0.0101
19,ACCGGATA,-0.0648
20,AAAACGTT,0.0264
21,CAATAGTC,-0.121
22,CTAATGAG,-0.145
23,ATGTTACC,0.317
24,ATAGCACG,0.161
25,CCGCACGA,-0.0762

row,Sequence,PBM E-score
1,AGTGCGCG,-0.259
2,GTGATCAA,0.0788
3,AGCTCATA,-0.0273
4,ACACAACT,0.317
5,AGGGAGCA,-0.421
6,TTCGTAAA,0.162
7,AGCATTGA,-0.135
8,CTGTAGGA,-0.0922
9,AAGCACTT,-0.0352
10,AGAGCCAC,-0.313
11,AAGAGGCG,-0.144
12,GCCTAGCC,-0.262
13,CGTGACCA,-0.0936
14,GCCCGTGA,-0.279
15,GCGAGCCC,-0.244
16,AATAGTCG,-0.0552
17,CCTAGATA,-0.309
18,CGGTAACA,0.269
19,CTTTATGC,0.00507
20,GCGTTAAC,0.379
21,TTGTAAAA,0.392
22,ACATCGAG,0.0614

# Source: the supplement of paper PMC3334620
